PubChem BioAssay AID1466 (National Center for Advancing Translational Sciences (NCATS), 2008)
Out of some 200,000 compounds screened, about 10 (0.005%) were called active. The inconclusive results got no clear call from the source; some entries with a clear call stand among them for comparison. Calls come from the whole dose curve; as a rule, active = well fitted inhibition curve with a large enough effect; inconclusive = small, poorly fitted or top-dose-only effect, or effect the other way, or another doubt; inactive = no such curve, though single readings can be large or run the other way. Potencies of inconclusive entries are left out as doubtful fits.

target: Lysosomal alpha-glucosidase (Homo sapiens) (UniProt P10253); test: qHTS Assay for Inhibitors of Human alpha-Glucosidase as a Potential Chaperone Treatment of Pompe Disease; settings: purified human GAA, 4-MU-alpha-glucoside fluorescence; activity change, negative = inhibition: at 76.9 µM (top of the series) unless noted;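 for activity change, negative = inhibition: plate controls were uninhibited enzyme wells for no effect and no-enzyme background for full effect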
Summary of the method: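 Human alpha-glucosidase, 4 nM, pre-mixed with test compounds before 400 uM 4-methylumbelliferyl substrate; 20 min room temperature at pH 5.0. Fluorescence read after pH 10 stop; AC50 values from Hill-equation fits.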
Potency is the fitted concentration of half-maximal effect; tags give direction and shape of the fitted curve.

SMILES	Potency	activity change, negative = inhibition
C=CCn1c(COc2ccccc2)nnc1SCC(=O)Nc1ccc2c(c1)OCCO2	inconclusive [inhibitor, partial curve, poor fit]	–
CCOC(=O)C(C)n1cnc2sc(C)c(C)c2c1=O (stereo unspecified)	–	inconclusive: -17.3% [inhibitor]
COc1ccc(NC(=O)CC2C(=O)N(C)C(=S)N2CCc2ccccc2)cc1 (stereo unspecified)	inconclusive [inhibitor, single point]	–
O=C(Cc1coc2cc3c(cc12)CCC3)OCC(=O)N1CCCC1=O	–	inconclusive: -16.2% [inhibitor]
CCOc1ccc(NC(=O)CSc2nnc(C34CC5CC(CC(C5)C3)C4)n2C)cc1	–	inconclusive: -15.4% [inhibitor]
Cc1ccc2nsnc2c1NC(=O)c1ccc(-c2cc(Cl)ccc2Cl)o1	–	inconclusive: 17.2% [activator]
CSc1sc(C)cc1C1C(C#N)=C(N)N(c2cccnc2)C2=C1C(=O)CCC2 (stereo unspecified)	inconclusive [inhibitor, single point]	–
CC1(C)CC(=O)c2sc(NC(=O)C(C)(C)C)nc2C1	–	inconclusive: -16.2% [inhibitor]
C/C(O)=C\c1nc2ccccc2oc1=O	inactive	–
CS(=O)(=O)N1N=C(c2ccccc2)CC1c1cccs1 (stereo unspecified)	–	inconclusive: 20.7% [activator]
Cc1ccc(C(=O)N/N=C\c2cc3c(cc2Br)OCO3)s1	inconclusive [activator, single point]	–
CN(Cc1cn[nH]c1-c1ccc2c(c1)OCO2)C1CCOCC1	–	inconclusive: 14.9% [activator]
Cc1ccccc1NC(=O)Cn1c(=O)sc2ccccc21	inconclusive [activator, single point]	–
CN(C)S(=O)(=O)c1ccc(NC(=O)N2CCN(c3cccc(C(F)(F)F)c3)CC2)cc1	inconclusive [inhibitor, partial curve]	–
CCC(CC)C(=O)c1c[nH]c(C(=O)NCCCn2ccnc2)c1	inconclusive [inhibitor, single point]	–
S=C(NCCN1CCCCC1)Nc1ccccc1	–	inconclusive: 13.9% [activator]
O=C(Nc1ccc2c(c1)OCO2)C1CCN(S(=O)(=O)c2cccc3cccnc23)CC1	inconclusive [inhibitor, single point]	–
COc1ccc(C2Nc3ccc4ccccc4c3-c3c2c(=O)oc2ccccc32)cc1 (stereo unspecified)	inconclusive [activator, full curve, poor fit]	–
C/C(=C\C(=O)c1cccnc1)Nc1ccc(C)c(C)c1	–	inconclusive: -15.2% [inhibitor]
CCOC(=O)c1ccc(N2C(=O)CC(SCC(N)C(=O)OCC)C2=O)cc1 (stereo unspecified)	–	inconclusive: -19% [inhibitor]
C/C(=N\NC(=O)c1ccccc1)c1cc2cc([N+](=O)[O-])ccc2oc1=O	inconclusive [inhibitor, single point]	–
COc1ccc(C2C(C(=O)Nc3cccc(OC)c3)c3ccccc3C(=O)N2C)cc1 (stereo unspecified)	inconclusive [inhibitor, single point]	–

SMILES	Potency	activity change, negative = inhibition
CCOC(=O)C1=CN(Cc2ccc(OC)cc2)C=C(C(=O)OCC)C1c1cccs1	inconclusive [activator, partial curve]	–
CC(=O)c1cccc(N(CC(=O)Nc2cc(C)cc(C)c2)S(C)(=O)=O)c1	inconclusive [inhibitor, single point]	–
CCOC(=O)c1[nH]c(Cc2[nH]c(C(=O)OCC)c(C)c2CCC(=O)OC)c(CCC(=O)OC)c1C	inconclusive [inhibitor, single point]	–
COC(=O)c1ccncc1N	inconclusive [activator, partial curve]	–
Cn1c(CNC(=O)c2ccccc2F)nnc1SCc1nc2ccccc2c(=O)[nH]1	–	inconclusive: 16.2% [activator]
C=CCN1C2CCCC1CC(NC(=S)Nc1cccc(OC)c1)C2 (stereo unspecified)	–	inconclusive: 8.69% [activator]
COc1ccccc1C(=O)Nc1ccc(N2CCN(C(C)=O)CC2)cc1	–	inconclusive: 11.5% [activator]
Cc1c(O)c(=O)c2ccccc2n1C	inconclusive [activator, partial curve]	–
O=C(Nc1nccc(-c2cccs2)n1)c1cccs1	inconclusive [inhibitor, full curve, poor fit]	–
O=C(/C=C/c1cccc([N+](=O)[O-])c1)NC1CC2CCC1C2 (stereo unspecified)	inconclusive [inhibitor, full curve]	–
CCCCNC(=O)CCC(=O)Nc1ccc2nc(N3CCCCC3)cc(C)c2c1	inconclusive [activator, partial curve]	–
CSc1ccccc1NC(=O)CN(Cc1ccccc1)S(C)(=O)=O	inconclusive [inhibitor, single point]	–
N#CC1=C(S)N(c2ccc(F)cc2)C(c2cccs2)NC1=O (stereo unspecified)	inconclusive [inhibitor, single point]	–
COc1ccccc1CNC(=O)c1c(N)n(CCCN2CCOCC2)c2nc3ccccc3nc12	inconclusive [activator, partial curve]	–
CCn1c(SCC(=O)NCC2CCCO2)nnc1-c1ccc(S(=O)(=O)N2CCN(C)CC2)cc1 (stereo unspecified)	–	inconclusive: 16.4% [activator]
COc1ccc(/C=N/NC(=O)C2(O)c3ccccc3-c3ccccc32)cc1	inconclusive [inhibitor, single point]	–
COc1cc(CNc2ccccc2Oc2cc(=O)n(C)c(=O)n2C)cc(OC)c1OC	inconclusive [inhibitor, single point]	–
CCOC(=O)c1sc2nc(CC(C)C)c3c(c2c1N)CCC3	inconclusive [activator, partial curve]	–
CCn1ncc(Br)c1C(=O)Nc1cc(C(=O)OC)ccc1C(=O)OC	inconclusive [inhibitor, single point]	–
CC(=O)Nc1cccc2c1C(=O)NC2=O	inconclusive [activator, single point]	–
COC(=O)c1c(N2C(=O)CC(Sc3ccccc3C(=O)O)C2=O)sc2c1CCCC2 (stereo unspecified)	inactive	–
COCCCn1c(=N)c(C(=O)NC2CCCCC2)cc2c(=O)n3ccccc3nc21	inconclusive [activator, partial curve]	–

SMILES	Potency	activity change, negative = inhibition
COc1cc(=O)n(C)c2cc(N(C)C)ccc12	inconclusive [activator, partial curve]	–
COc1ccc(N(C(=O)COc2ccccc2OC)S(=O)(=O)c2ccc(C)cc2)cc1	inconclusive [activator, partial curve]	–
O=C(NCc1cc(C(F)(F)F)cc(C(F)(F)F)c1)C1CC(c2c(Cl)cccc2Cl)=NO1 (stereo unspecified)	inconclusive [inhibitor, single point]	–
COc1cccc(CNC(=O)Nc2cccs2)c1	inactive	–
CCCn1c(CCC(=O)Nc2ccccc2Cc2ccccc2)nc2cc(S(=O)(=O)N3CCOCC3)ccc21	inconclusive [inhibitor, partial curve, poor fit]	–
CCOc1ccc2c(c1)C(C)=CC(C)(C)N2C(=O)Nc1ccccc1F	–	inconclusive: 16% [activator]
CN(Cc1ccccn1)Cc1nc(Cc2ccccc2Cl)no1	–	inconclusive: 16.2% [activator]
Cc1ccc(O)c(Sc2cc(C)ccc2O)c1	inactive	–
CCOC(=O)Cn1cc(/C=N/NC(=O)c2ccc(C#N)cc2F)c2ccccc21	inconclusive [inhibitor, partial curve]	–
O=C(Nc1cccnc1)/C(N=Nc1cccnc1)=C(\O)c1ccccc1	–	inconclusive: -16.5% [inhibitor]
Cc1ccc(-c2ccc(/C=N/NC(=O)c3ccccc3O)o2)cc1	inconclusive [inhibitor, single point]	–
COc1ccc(-c2cc(C(F)(F)F)nc(NCc3ccco3)n2)cc1OC	inconclusive [inhibitor, single point]	–
CCCC(=O)C1=C(O)C(C(=O)OC)C(C)(C)CC1=NCCc1ccc(OC)c(OC)c1 (stereo unspecified)	–	inconclusive: 16.4% [activator]
COc1cc(/C=C2\SC(=S)N(Nc3ncc(C(F)(F)F)cc3Cl)C2=O)ccc1O	inconclusive [inhibitor, partial curve]	–
COc1ccc(CN(Cc2ccc(C(=O)O)cc2)C(=S)Nc2ccc(C)cc2)cc1OC	inconclusive [activator, partial curve]	–
COc1ccc(Br)cc1/C=C\C(=O)NCc1cccnc1	inconclusive [inhibitor, single point]	–
O=C(COC(=O)CNC(=O)c1ccc(F)cc1)Nc1cccc(S(=O)(=O)N2CCCC2)c1	inconclusive [inhibitor, single point]	–
O=C(Nc1cccc2ccccc12)c1ccc(Cn2cc(Cl)cn2)cc1	inconclusive [inhibitor, partial curve]	–
CCOC(=O)c1cc2c(=O)n3ccccc3nc2n(CCOC)c1=NC(=O)C(C)(C)C	inconclusive [activator, partial curve]	–
CC(C)CNC(=S)NNC(=O)c1csc2c1CCCC2	inconclusive [inhibitor, full curve, poor fit]	–
CON1C(=O)C(=O)N(OC)C2CCCCCC21 (stereo unspecified)	inactive	–
Cc1ccccc1NC(=O)CSc1nc2c(c(-c3ccco3)c1C#N)CCCC2	inconclusive [inhibitor, single point]	–
